This is an account of results in the antibiotic and cytotoxicity screens of Wong et al. (2023).

The other results are listed elsewhere or left out.

One test deals with HSkMC. In words: cytotoxicity call (relative viability < 0.9). The settings on record: 10 µM.
The subject of a further test is S. aureus RN4220. In words: growth inhibition call (relative growth <= 0.2). The settings on record: 50 µM.

In the case of `C[C@H]1CN([C@@H](C)CO)S(=O)(=O)c2ccc(C#CC3(O)CCCC3)cc2O[C@H]1CN(C)C(=O)Nc1ccc(F)cc1`, the cytotoxicity call in the test with HSkMC was “inactive”. Also, the growth inhibition call in the test on S. aureus RN4220 is “inactive”.

For `C[C@@H]1CCCCO[C@H](CN(C)Cc2ccc(C(=O)O)cc2)[C@@H](C)CN([C@H](C)CO)C(=O)c2cc(NC(=O)C3CCCCC3)ccc2O1`, the cytotoxicity call in the test on HSkMC was “inactive”. Further, the growth inhibition call in the test on S. aureus RN4220 was “inactive”.

For the compound `CCN(CC)CCNC(=O)c1cc(Br)c(N)cc1OC`, the cytotoxicity call with HSkMC is “inactive”. Further, the growth inhibition call in the test with S. aureus RN4220 was “inactive”.

Regarding `O=C(CN1CCOCC1)NCC[C@H]1CC[C@H](NC(=O)Nc2ccccc2)[C@@H](CO)O1`, the cytotoxicity call with HSkMC is “inactive”. The growth inhibition call with S. aureus RN4220 is “inactive”.

For `Cc1ccc(S(=O)(=O)N(C)C[C@@H]2OCCCC[C@@H](C)Oc3ccc(NC(=O)C4CCCCC4)cc3C(=O)N([C@H](C)CO)C[C@@H]2C)cc1`, the cytotoxicity call in the test on HSkMC is “inactive”. Moreover, the growth inhibition call with S. aureus RN4220 was “inactive”.

Regarding `COc1ccc([Si](C)(C)[C@H]2[C@H](CCO)O[C@@]3(C(=O)N(Cc4ccccc4)c4ccc(N5CCCCC5=O)cc43)[C@@H]2C)cc1`, in the test with HSkMC, the cytotoxicity call was “inactive”. In addition, in the test on S. aureus RN4220, the growth inhibition call is “inactive”.

For `Cc1ccc(S(=O)(=O)N(C)C[C@@H]2OCCCC[C@H](C)Oc3ccc(NS(=O)(=O)c4ccc(F)cc4)cc3C(=O)N([C@H](C)CO)C[C@H]2C)cc1`, in the test with HSkMC, the cytotoxicity call was “inactive”. Also, the growth inhibition call in the test on S. aureus RN4220 is “inactive”.

As to `Cc1noc(C)c1S(=O)(=O)N(C)C[C@@H]1OCCCC[C@H](C)Oc2ccc(NC(=O)Nc3ccccc3)cc2C(=O)N([C@@H](C)CO)C[C@H]1C`, the cytotoxicity call with HSkMC was “inactive”. Besides, the growth inhibition call in the test on S. aureus RN4220 is “inactive”.

Take `COC(=O)[C@@H]1N2C(=O)[C@@H](N3CC4=C[C@@H](C5CC5)n5c(=O)n(C)c(=O)n5[C@@H]4[C@@H]3[C@@H](O)Cc3ccccc3)[C@H]2SC1(C)C`: in the test with HSkMC, the cytotoxicity call was “inactive”. Besides, the growth inhibition call in the test on S. aureus RN4220 was “inactive”.

With `CCC(=O)O[C@H]1[C@H](O[C@@H]2[C@@H](C)[C@H](O[C@H]3C[C@@](C)(OC)[C@@H](O)[C@H](C)O3)[C@@H](C)C(=O)O[C@H](CC)[C@@](C)(O)[C@H](O)[C@@H](C)C(=O)[C@H](C)C[C@@]2(C)O)O[C@H](C)C[C@@H]1N(C)C`, in the test with HSkMC, the cytotoxicity call was “inactive”. In addition, the growth inhibition call in the test with S. aureus RN4220 was “inactive”.

`COc1ccc(NC(=O)N(C)C[C@H]2Oc3c(NS(C)(=O)=O)cccc3C(=O)N([C@@H](C)CO)C[C@H]2C)cc1`: the cytotoxicity call with HSkMC was “inactive”. Further, the growth inhibition call with S. aureus RN4220 was “inactive”.

On to `C[C@@H]1CCCCO[C@@H](CN(C)C(=O)c2ccncc2)[C@H](C)CN([C@H](C)CO)C(=O)c2cc(NS(=O)(=O)c3ccc(Cl)cc3)ccc2O1`, for which the cytotoxicity call in the test with HSkMC is “inactive”. For the same compound, the growth inhibition call in the test with S. aureus RN4220 is “inactive”.

Regarding `COc1ccc(S(=O)(=O)N(C)C[C@@H]2OCCCC[C@H](C)Oc3ccc(NC(=O)Nc4ccccc4)cc3C(=O)N([C@H](C)CO)C[C@@H]2C)cc1`, the cytotoxicity call in the test on HSkMC is “inactive”. For the same compound, in the test on S. aureus RN4220, the growth inhibition call was “inactive”.

Consider `Cc1ccc(=O)n(CC(=O)O)n1`, for which the cytotoxicity call in the test with HSkMC is “inactive”. In the test with S. aureus RN4220, the growth inhibition call is “inactive”.

Take `C[C@@H]1CCCCO[C@@H](CN(C)C(=O)Nc2ccc(C(F)(F)F)cc2)[C@H](C)CN([C@@H](C)CO)C(=O)c2cc(NS(=O)(=O)c3ccc(Cl)cc3)ccc2O1`: the cytotoxicity call in the test on HSkMC is “inactive”. In the test on S. aureus RN4220, the growth inhibition call is “inactive”.

For the compound `C[C@H]1CN([C@@H](C)CO)C(=O)c2cccc(NC(=O)C3CC3)c2O[C@@H]1CN(C)C(=O)NC1CCCCC1`, the cytotoxicity call in the test on HSkMC is “inactive”. Further, the growth inhibition call in the test on S. aureus RN4220 is “inactive”.

Turning to `C[C@H]1CCCCO[C@H](CN(C)Cc2ccc(C(F)(F)F)cc2)[C@@H](C)CN([C@@H](C)CO)C(=O)c2cc(NS(=O)(=O)c3ccccc3)ccc2O1`, in the test on HSkMC, the cytotoxicity call is “inactive”. In addition, the growth inhibition call in the test with S. aureus RN4220 was “inactive”.

Turning to `CN1C(=O)c2cc(NC(=O)c3cccs3)ccc2OC[C@@H]2O[C@H](CC(=O)NCC(F)(F)F)CC[C@@H]21`, in the test with HSkMC, the cytotoxicity call was “inactive”. For the same compound, in the test on S. aureus RN4220, the growth inhibition call is “inactive”.

As for `COc1ccc(NC(=O)Nc2ccc3c(c2)C(=O)N([C@@H](C)CO)C[C@@H](C)[C@@H](CN(C)C(=O)C2CCCCC2)OCCCC[C@H](C)O3)cc1`, the cytotoxicity call with HSkMC was “inactive”. In addition, in the test on S. aureus RN4220, the growth inhibition call is “inactive”.

On to `Cc1ccc(S(=O)(=O)Nc2ccc3c(c2)C(=O)N([C@@H](C)CO)C[C@@H](C)[C@H](CN(C)C(=O)NC2CCCCC2)OCCCC[C@H](C)O3)cc1`, for which the cytotoxicity call in the test on HSkMC is “inactive”. Also, in the test with S. aureus RN4220, the growth inhibition call was “inactive”.

For `CC(C)OC[C@H]1Cn2c(nc3c2c(=O)n(C)c(=O)n3C)O1`, the cytotoxicity call in the test on HSkMC is “inactive”. The growth inhibition call in the test with S. aureus RN4220 is “inactive”.

As to `CC(C)NC(=O)N(C)C[C@@H]1Oc2ccc(NC(=O)Cn3cnnn3)cc2C(=O)N([C@H](C)CO)C[C@H]1C`, in the test with HSkMC, the cytotoxicity call was “inactive”. Also, the growth inhibition call in the test with S. aureus RN4220 is “inactive”.

Turning to `NS(=O)(=O)c1ccc(Cl)cc1[N+](=O)[O-]`, the cytotoxicity call in the test with HSkMC is “inactive”. Further, the growth inhibition call with S. aureus RN4220 is “inactive”.

`CC(=O)OCCn1c(=O)[nH]c(=O)c2nsnc21`: in the test on HSkMC (human skeletal muscle cells), the cytotoxicity call is “inactive”. Besides, the growth inhibition call in the test on S. aureus RN4220 was “inactive”.

Take `C[C@@H]1CN([C@@H](C)CO)C(=O)Cc2cc(NC(=O)Nc3ccc(C(F)(F)F)cc3)ccc2O[C@@H]1CN(C)C(=O)Nc1cccc2ccccc12`: the cytotoxicity call in the test with HSkMC is “active”. Also, the growth inhibition call with S. aureus RN4220 was “inactive”.

Turning to `Cc1cc(C(=O)O)c(=O)[nH]c1C`, the cytotoxicity call in the test with HSkMC was “inactive”. Further, in the test on S. aureus RN4220, the growth inhibition call is “inactive”.
